The whole screen tested about 310,000 compounds, of which about 14,000 (4.5%) showed an effect of 50% or more. Effects have a minus sign here. Some of the results follow.
The compounds below were run against human ether-à-go-go-related gene (hERG) potassium channel (human, UniProt Q12809) (assay: primary screen, population patch clamp on CHO cells stably expressing hERG).
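Note: peak tail current of the secondary pulse compared with the same well before compound.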

Chain of human ether-à-go-go-related gene (hERG) potassium channel (Q12809 whole entry, looked up): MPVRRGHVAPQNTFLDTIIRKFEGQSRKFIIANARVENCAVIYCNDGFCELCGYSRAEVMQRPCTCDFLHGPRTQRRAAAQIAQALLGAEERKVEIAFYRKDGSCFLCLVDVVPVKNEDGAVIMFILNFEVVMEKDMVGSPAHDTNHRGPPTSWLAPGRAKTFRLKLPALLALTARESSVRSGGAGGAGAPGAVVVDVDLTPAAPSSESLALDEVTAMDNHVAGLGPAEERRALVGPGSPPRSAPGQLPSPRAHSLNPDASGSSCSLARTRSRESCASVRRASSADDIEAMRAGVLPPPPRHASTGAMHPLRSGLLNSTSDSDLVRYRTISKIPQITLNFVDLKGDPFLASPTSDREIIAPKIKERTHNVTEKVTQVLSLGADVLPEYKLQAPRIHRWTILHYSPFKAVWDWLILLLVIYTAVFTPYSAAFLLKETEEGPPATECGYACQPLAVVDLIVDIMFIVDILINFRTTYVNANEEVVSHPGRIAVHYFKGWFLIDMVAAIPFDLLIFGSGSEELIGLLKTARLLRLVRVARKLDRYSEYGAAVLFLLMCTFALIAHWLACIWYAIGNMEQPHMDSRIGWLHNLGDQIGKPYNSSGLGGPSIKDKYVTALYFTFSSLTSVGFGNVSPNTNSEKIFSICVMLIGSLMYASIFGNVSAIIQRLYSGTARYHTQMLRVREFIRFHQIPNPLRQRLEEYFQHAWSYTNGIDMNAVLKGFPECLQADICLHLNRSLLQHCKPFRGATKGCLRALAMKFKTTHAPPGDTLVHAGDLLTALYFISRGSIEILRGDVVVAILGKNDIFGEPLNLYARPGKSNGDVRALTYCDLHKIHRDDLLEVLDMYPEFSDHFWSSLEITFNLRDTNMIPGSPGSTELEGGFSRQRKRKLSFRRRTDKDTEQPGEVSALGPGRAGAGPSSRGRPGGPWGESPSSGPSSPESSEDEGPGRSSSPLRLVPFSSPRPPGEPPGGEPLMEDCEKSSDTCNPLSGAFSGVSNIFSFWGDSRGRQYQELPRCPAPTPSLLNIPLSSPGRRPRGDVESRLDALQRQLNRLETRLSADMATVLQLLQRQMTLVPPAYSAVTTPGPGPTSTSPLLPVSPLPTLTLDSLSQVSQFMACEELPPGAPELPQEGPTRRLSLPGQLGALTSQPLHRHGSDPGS

Row | SMILES | hERG current change (%, negative = inhibition) at 10uM
1 | Cc1ccc(C2(C)NC(=O)N(CC(=O)N(C)CC(=O)Nc3cccc4ccccc34)C2=O)cc1 (stereo not shown) | 2.52%
2 | Cc1cccc(C)c1NC(=S)N(Cc1ccccc1)Cc1cccnc1 | 1.4%
3 | C[C@@H](NC(=O)Cn1ccc(N)nc1=O)c1cccc2ccccc12 | 18%
4 | CCOC(=O)Cc1csc(NC(=O)Nc2cccs2)n1 | 9.01%
5 | COc1cc(C2NCCC(=O)C2(C)C)cc(OC)c1OC.Cl (stereo not shown) | -0.479%
6 | NC(=O)Nc1ccc(C(=O)OCC(=O)Nc2ccc(Cl)cn2)cc1 | 15.2%
7 | O=C(CSc1nnc2c(Cl)cc(Cl)cn12)N1CCN(c2ccc(F)cc2)CC1 | -51.5%
8 | Cn1c(-c2ccccc2Br)n[nH]c1=S | 18.8%
9 | COc1ccc(CNC(=O)Nc2cccc(C(F)(F)F)c2)cc1OC | 14.1%
10 | O=C(Nc1ncc2c(n1)CC(c1cccc(Cl)c1)CC2=O)c1ccco1 (stereo not shown) | -39%
11 | COc1cc(NS(=O)(=O)c2ccc(N/C=C(\C=O)c3nc4cc(Cl)ccc4o3)cc2)nc(OC)n1 | -2.34%
12 | N#CC1=C(N)Oc2c(c(=O)oc3ccccc23)C1c1ccc([N+](=O)[O-])o1 (stereo not shown) | 45.8%
13 | CCOC(=O)c1ccc(CN2Cc3ccccc3C2=O)cc1 | 2.17%
14 | CCCc1nn(C)c(C(=O)Nc2ccc(C)c(C)c2)c1Cl | -10%
15 | CCCCn1c(N)c(N(CCC(C)C)C(=O)C2CSC3(C)CCC(=O)N23)c(=O)[nH]c1=O (stereo not shown) | -2.67%
16 | CC(C)Cn1c(CCC(=O)O)ccc1-c1cccs1 | 4.38%
17 | Cc1ccc(OCCn2c(=O)sc3ccccc32)cc1 | 4.98%
18 | COc1cccc(OC)c1C(=O)NC(=O)Nc1c(C)cccc1C | 5.78%
19 | CCN(CC)S(=O)(=O)c1ccc(NC2CCN(Cc3ccccc3)CC2)nc1 | -57.9%
20 | CCN(CC)S(=O)(=O)c1cc(NC(=O)C2CC(=O)N(Cc3ccccc3)C2)ccc1Cl (stereo not shown) | -37.8%
21 | Cc1cccc(-n2ncc3c(NCCCN4CCCC4=O)ncnc32)c1 | -22.7%
22 | Cc1ccc(S(=O)(=O)NC(C)C(=O)NC2CC2)cc1 (stereo not shown) | 21.4%
23 | O=S(=O)(Nc1ccc(Cc2ccncc2)cc1)c1ccc(Br)cc1 | -41.2%
24 | O=C1COc2ccc(C(=O)CSc3ccccc3C(=O)O)cc2N1 | 12.1%
25 | CN1C2CCC1CC(OC(=O)c1c[nH]c3ccccc13)C2 (stereo not shown) | -59.1%
